According to the RNAGym collection of RNA variant scans (doi:10.7554/elife.90254):
Read counts are not given, so values of variants with three or more changes are uncertain.

B1: LINE1-mini (parent)
chain: GGCAGAGCUCAACACAGCGUGGCAAAGUGGCUGUGGCUAGACUGCC

Variants of: B1
Assay: self-cleavage, relative activity (ratio to wild type); higher = more cleavage; in vitro, sequencing; the parent is a self-cleaving ribozyme

With G5C A11C G17C as the variant, how does the self-cleavage read?
The self-cleavage was 0.03.

For G5C A11U G21C, which self-cleavage is on record?
Its self-cleavage is 0.03.

With G5A G7A C23U as the variant, how does the self-cleavage read?
The self-cleavage was 0.26.

For G5A G36U C45A, which self-cleavage is on record?
The self-cleavage was 0.03.

With G5A C31G C45G as the variant, how does the self-cleavage read?
Its self-cleavage is 0.04.

With G5A G36C A39G as the variant, how does the self-cleavage read?
The self-cleavage was 0.01.

With G5C A26C G30A as the variant, how does the self-cleavage read?
The self-cleavage was 0.04.

For G5C A11U C13U A14C G19C C31A G33A, which self-cleavage is on record?
Its self-cleavage is 0.01.

Which self-cleavage does the source give for G5C A11C U20C here?
Its self-cleavage is 0.01.

With G5A G22U G35U A41C C42G as the variant, how does the self-cleavage read?
Its self-cleavage is 0.03.

For G5C A24G A39U, which self-cleavage is on record?
Its self-cleavage is 0.03.

For G5C A11U G21C A24U G36A, which self-cleavage is on record?
The self-cleavage was 0.01.

With G5A G19U C23U C31G C45A as the variant, how does the self-cleavage read?
Its self-cleavage is 0.18.

With G5C A11C G17U U43A C45G as the variant, how does the self-cleavage read?
The self-cleavage was 0.

For G5C A11C U38C, which self-cleavage is on record?
The self-cleavage was 0.02.

Which self-cleavage does the source give for G5C A16U C37U here?
Its self-cleavage is 0.02.

With G5A U32G C46A as the variant, how does the self-cleavage read?
Its self-cleavage is 0.04.

For G5A G17C C23A, which self-cleavage is on record?
Its self-cleavage is 0.06.

With G5A G19U U28A G35C as the variant, how does the self-cleavage read?
Its self-cleavage is 0.06.

With G5A G30A A41G as the variant, how does the self-cleavage read?
Its self-cleavage is 0.06.

Which self-cleavage does the source give for G5C A16U A24C A25G G33A here?
Its self-cleavage is 0.03.

For G5A G21U G29C G33U, which self-cleavage is on record?
Its self-cleavage is 0.09.

For G5A G22C G33C, which self-cleavage is on record?
The self-cleavage was 0.04.

For G5C A14C C18A C45U, which self-cleavage is on record?
The self-cleavage was 0.04.

For G5A U9C G27A, which self-cleavage is on record?
The self-cleavage was 0.06.

For G5A G22A G33U, which self-cleavage is on record?
The self-cleavage was 0.05.

For G5A U9C A39U, which self-cleavage is on record?
Its self-cleavage is 0.04.

With G5A G19U C46U as the variant, how does the self-cleavage read?
The self-cleavage was 0.02.

Which self-cleavage does the source give for G5A U9C G17U G30A C45A here?
The self-cleavage was 0.

With G5A C31U U34G G35U as the variant, how does the self-cleavage read?
Its self-cleavage is 0.05.

For G5A U9A U20G G35U, which self-cleavage is on record?
Its self-cleavage is 0.06.

Which self-cleavage does the source give for G5A C31U C45A here?
The self-cleavage was 0.03.

With G5A G19C C23G as the variant, how does the self-cleavage read?
Its self-cleavage is 0.12.

For G5A C31A U34A, which self-cleavage is on record?
The self-cleavage was 0.04.

For G5C A6U A39C U43A, which self-cleavage is on record?
Its self-cleavage is 0.04.

With G5A U9G U20A as the variant, how does the self-cleavage read?
The self-cleavage was 0.29.

With G5A G17A G22A as the variant, how does the self-cleavage read?
The self-cleavage was 0.04.

Which self-cleavage does the source give for G5A G27A U28A G35A here?
Its self-cleavage is 0.02.

With G5C A12C G21U as the variant, how does the self-cleavage read?
The self-cleavage was 0.03.

For G5A G19U G27U, which self-cleavage is on record?
The self-cleavage was 0.28.

Which self-cleavage does the source give for G5A G7A G27A C31G here?
Its self-cleavage is 0.06.

With G5C A14U G30A G40A C42A as the variant, how does the self-cleavage read?
The self-cleavage was 0.26.

Which self-cleavage does the source give for G5A C37A U38C here?
Its self-cleavage is 0.04.

Which self-cleavage does the source give for G5C A11U G22A A24U G33A C46A here?
Its self-cleavage is 0.02.

For G5C A16C A26G G33C G40U, which self-cleavage is on record?
Its self-cleavage is 0.06.

For G5C A11G G33U G44A, which self-cleavage is on record?
Its self-cleavage is 0.03.

For G5C A11C A14U C18A C46A, which self-cleavage is on record?
Its self-cleavage is 0.02.

For G5A G27U G33U, which self-cleavage is on record?
Its self-cleavage is 0.11.

Which self-cleavage does the source give for G5C A25G C37G C46A here?
The self-cleavage was 0.05.

With G5A G7C C10U C13U as the variant, how does the self-cleavage read?
The self-cleavage was 0.09.

For G5A U20G G27U G40C, which self-cleavage is on record?
The self-cleavage was 0.36.

Which self-cleavage does the source give for G5A G19A A26C A39U here?
Its self-cleavage is 0.02.

With G5A G7U G19C G21A A24U C45G as the variant, how does the self-cleavage read?
Its self-cleavage is 0.05.

With G5A C31U C37A as the variant, how does the self-cleavage read?
The self-cleavage was 0.26.

With G5A U20G G21C G30U G35U as the variant, how does the self-cleavage read?
The self-cleavage was 0.02.

For G5C A25G A39G, which self-cleavage is on record?
Its self-cleavage is 0.07.

With G5C A16G G19U G27U U28G as the variant, how does the self-cleavage read?
The self-cleavage was 0.

With G5A G21C U32G A41C as the variant, how does the self-cleavage read?
The self-cleavage was 0.04.

For G5C A11G U32A, which self-cleavage is on record?
The self-cleavage was 0.02.

For G5A G17U C37A, which self-cleavage is on record?
Its self-cleavage is 0.05.

For G5A G21A C31G, which self-cleavage is on record?
Its self-cleavage is 0.02.

For G5A G19U C23G G27U, which self-cleavage is on record?
Its self-cleavage is 0.03.

With G5A U20G G35U as the variant, how does the self-cleavage read?
Its self-cleavage is 0.07.

For G5A U9C C46A, which self-cleavage is on record?
The self-cleavage was 0.04.

With G5C A6C A14G A26G A41U as the variant, how does the self-cleavage read?
The self-cleavage was 0.02.

With G5A U9A G22A U43A as the variant, how does the self-cleavage read?
The self-cleavage was 0.03.

With G5A C37U C45U as the variant, how does the self-cleavage read?
The self-cleavage was 0.15.

With G5A C31G G33A as the variant, how does the self-cleavage read?
The self-cleavage was 0.03.

Which self-cleavage does the source give for G5C A14U A24C C45A here?
The self-cleavage was 0.03.

For G5C A11U A39G, which self-cleavage is on record?
The self-cleavage was 0.

With G5C A14U C15U A24U A26C G33A as the variant, how does the self-cleavage read?
Its self-cleavage is 0.04.

With G5C A14G G30U U34A A41U C45U as the variant, how does the self-cleavage read?
The self-cleavage was 0.01.

With G5A G29C G40A C42U as the variant, how does the self-cleavage read?
The self-cleavage was 0.07.

Which self-cleavage does the source give for G5A G17C C18G A25G G44A here?
Its self-cleavage is 0.04.

With G5C A14U C18G C31A U43A C45U as the variant, how does the self-cleavage read?
The self-cleavage was 0.04.

For G5A G17U C18U G35U U43G, which self-cleavage is on record?
The self-cleavage was 0.

With G5C A12C G33A U34C as the variant, how does the self-cleavage read?
Its self-cleavage is 0.03.

Which self-cleavage does the source give for G5A G7A A14G C15U C31G here?
Its self-cleavage is 0.16.

With G5C A6C C18A G30C A39G G40A as the variant, how does the self-cleavage read?
Its self-cleavage is 0.

With G5A U20G U38G as the variant, how does the self-cleavage read?
The self-cleavage was 0.04.

With G5C A6C A41G as the variant, how does the self-cleavage read?
The self-cleavage was 0.28.

Which self-cleavage does the source give for G5C A11G A12U G17U A39C C45A here?
Its self-cleavage is 0.01.

For G5C A26C C42U, which self-cleavage is on record?
Its self-cleavage is 0.06.
